In PubChem BioAssay AID1468 (National Center for Advancing Translational Sciences (NCATS), 2008):
Screen size: about 280,000 compounds; about 1,100 (0.39%) were called active. The inconclusive results got no clear call from the source; some entries with a clear call stand among them for comparison. Calls come from the whole dose curve; as a rule, active = well fitted inhibition curve with a large enough effect; inconclusive = small, poorly fitted or top-dose-only effect, or effect the other way; inactive = flat fitted curve, though single readings scatter. Potencies of inconclusive entries are left out as doubtful fits.

These compounds were tested against Microtubule-associated protein tau (Homo sapiens) (UniProt P10636) (assay: qHTS for Inhibitors of Tau Fibril Formation, Fluorescence Polarization). Conditions: K18 P301L tau heparin fibrillization, Alexa594 FP, 6 h; series mostly up to 57.7 µM; activity, negative = inhibition: at the top concentration.
Sequence of UniProt P10636 (P10636 whole entry, looked up): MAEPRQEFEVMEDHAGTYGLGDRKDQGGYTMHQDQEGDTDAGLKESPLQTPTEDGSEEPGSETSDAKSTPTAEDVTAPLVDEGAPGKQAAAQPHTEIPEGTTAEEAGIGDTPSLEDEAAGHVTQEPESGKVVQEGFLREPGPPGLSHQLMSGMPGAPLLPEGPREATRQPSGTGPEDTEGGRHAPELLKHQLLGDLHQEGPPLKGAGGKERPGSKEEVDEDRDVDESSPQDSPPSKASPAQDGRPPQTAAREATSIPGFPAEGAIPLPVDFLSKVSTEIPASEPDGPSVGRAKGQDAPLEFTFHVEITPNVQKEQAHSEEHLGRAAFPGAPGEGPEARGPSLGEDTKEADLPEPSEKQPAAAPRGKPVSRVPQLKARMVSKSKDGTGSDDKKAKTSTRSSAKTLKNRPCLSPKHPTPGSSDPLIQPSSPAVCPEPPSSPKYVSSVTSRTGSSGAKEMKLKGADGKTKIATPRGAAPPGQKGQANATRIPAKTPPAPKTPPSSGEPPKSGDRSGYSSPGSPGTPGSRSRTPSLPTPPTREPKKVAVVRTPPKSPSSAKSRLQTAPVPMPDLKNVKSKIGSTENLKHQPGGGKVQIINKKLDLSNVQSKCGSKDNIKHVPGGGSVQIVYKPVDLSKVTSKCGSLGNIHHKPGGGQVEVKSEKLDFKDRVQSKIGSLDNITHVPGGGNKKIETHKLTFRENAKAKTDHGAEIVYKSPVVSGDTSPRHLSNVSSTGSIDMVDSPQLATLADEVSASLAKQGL
Outline: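 FP of Alexa 594-tau after heparin (20 uM) induction. Substrate: human K18 P301L, 15 uM unlabeled, 0.24 uM labeled. Buffer 100 mM sodium acetate pH 7. 6 hr, 37 C.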
% is set by controls: 0 for no effect and ±100 for the full control effect; potency is the fitted concentration of half-maximal effect; tags give direction and shape of the fitted curve.
Note: nearly all actives have a fitted effect of over 55% in size.

Row | SMILES | activity, negative = inhibition | Potency
1 | O=C1C=C(NCc2ccccc2)CCC1 | inactive: 0.496% | 
2 | CN1CCN(Cc2c(O)ccc3cc(Br)ccc23)CC1 |  | inconclusive [activator, partial curve, poor fit]
3 | CC1CN(C2=CC(=O)CCC2)CC(C)O1 (configuration not stated) |  | inconclusive [inhibitor, single point]
4 | CCc1ccc(OCC(=O)NNC(=O)c2cc3ccccc3o2)cc1 |  | inconclusive [activator, full curve, poor fit]
5 | COC(=O)c1cccc(N2C(=O)C(Cl)=C(N3CCOCC3)C2=O)c1 |  | active: 28.2 µM
6 | CCC(=O)C1=C(c2ccc(OC)c(OC)c2)N(C(=O)CC)n2c(nnc2-c2ccc(C)cc2)S1 | inactive: -10.1% | 
7 | O=C(Cn1c(=O)n(Cc2ccccc2)c(=O)c2sc3ccccc3c21)Nc1ccccc1 |  | inconclusive [inhibitor, partial curve]
8 | Cc1nn(C)c2c1c(-c1ccccc1)cc(=O)n2CC(=O)NC(C)c1ccccc1 (configuration not stated) | inactive: -2.74% | 
9 | Cc1ccc(Cl)cc1NC(=O)Nc1cccc(OCc2cc(=O)n3ccccc3n2)c1 |  | inconclusive [inhibitor, full curve]
10 | Cc1c(NC(=O)CN2C(=O)C3C4C=CC(C4)C3C2=O)c(=O)n(-c2ccccc2)n1C (configuration not stated) |  | inconclusive [inhibitor, partial curve, poor fit]
11 | CCOC(=O)CSc1nc(C2CC2)cc(-c2ccc(Cl)cc2)c1C#N |  | inconclusive [inhibitor, full curve, poor fit]
12 | COc1ccc(OC)c(C2=NS(=O)(=O)N(C)C(C(=O)Nc3ccc(F)cc3F)=C2)c1 | inactive: -12.5% | 
13 | COC(=O)CC1C(=O)NCCN1C(=S)NC(=O)c1sc2ccccc2c1Cl (configuration not stated) | inactive: 7.67% | 
14 | O=C(O)c1ccccc1-n1ncc2c1/C(=C/c1ccc(Cl)cc1)CC2 | inactive: 2.24% | 
15 | O=C(NCc1noc2ccccc12)N1CCN(c2ccccc2)CC1 | inactive: 5.82% | 
16 | CC(=O)c1cccc(N(CC(=O)Nc2ccc(F)cc2F)S(C)(=O)=O)c1 |  | inconclusive [inhibitor, single point]
17 | COC(=O)C(Cc1ccc(O)cc1)NC(=O)c1ccccc1OC (configuration not stated) |  | inconclusive [inhibitor, single point]
18 | C=CCc1cccc(/C=N/NC(=O)CNc2ccccc2)c1O |  | inconclusive [activator, partial curve, poor fit]
19 | CCN1C/C(=C/c2sccc2C)c2nc3ccccc3c(C(=O)O)c2C1 | inactive: 10.6% | 
20 | C[C@H](NC(=O)c1[nH]cnc1C(=O)Nc1ccc(CNC(=O)OC(C)(C)C)cc1)C(=O)OCc1ccccc1 |  | inconclusive [inhibitor, partial curve, poor fit]
21 | COc1ccc(-c2nc(C)sc2C)cc1 | inactive: 1.28% | 
22 | COc1ccc(Nc2nc(C)cc(C)c2C(N)=O)c(OC)c1 |  | inconclusive [inhibitor, full curve, poor fit]
23 | COc1ccc(-c2cc(-c3ccccc3)nc(SCC(=O)Nc3ccccc3F)c2C#N)cc1 |  | inconclusive [inhibitor, single point]
24 | Cc1ccc(C(=O)Nc2c(-c3cccs3)nc3cc(C)ccn23)cc1 | inactive: 6.38% | 

Row | SMILES | activity, negative = inhibition | Potency
25 | CCCCCCn1c(-c2ccco2)nc2oc3cc(OC)ccc3c(=O)c2c1=O | inactive: -0.36% | 
26 | Cc1nc(N2CCCCC2)sc1C(=O)c1cccc([N+](=O)[O-])c1 | inactive: 10.7% | 
27 | Cc1ccc2nc(-c3cc(NC(=O)COc4ccc(C)c(C)c4)ccc3Cl)oc2c1 |  | inconclusive [inhibitor, partial curve, poor fit]
28 | [C-]#[N+]/C(C#N)=C\c1cc(C(C)(C)C)c(O)c(C(C)(C)C)c1 |  | inconclusive [inhibitor, single point]
29 | COc1ccccc1C(=O)Nc1c(C(=O)Nc2ccccc2F)oc2ccccc12 |  | inconclusive [inhibitor, partial curve]
30 | Cc1cc(-c2ccccc2)n2nc(-c3ccccc3)cc2n1 |  | inconclusive [inhibitor, full curve]
31 | CN(C)CCNC(=O)C(=O)NCC(c1ccc2c(c1)OCO2)N1CCOCC1 (configuration not stated) |  | inconclusive [inhibitor, partial curve, poor fit]
32 | Cc1ccc2cc(C(c3nnnn3Cc3ccccc3)N3CCN(c4ccccc4)CC3)c(=O)[nH]c2c1 (configuration not stated) | inactive: -3.08% | 
33 | Cc1cc(Cl)c(OCCOCCN2CCCCC2)c(Br)c1 | inactive: 0.442% | 
34 | O=C(Nc1cccc(-c2nc3ccccc3o2)c1)C(F)(F)F |  | inconclusive [inhibitor, full curve, poor fit]
35 | Nc1c(C(=O)Nc2cccc(F)c2)c2ccccn2c1C(=O)c1ccccc1 | inactive: -19.7% | 
36 | O=C(O)CC(CCc1ccccc1)OC1OC(CO)C(O)C(O)C1O (configuration not stated) | inactive: -7.73% | 
37 | Cc1cccc(C(=O)Nc2ccc3nc(SCCOc4ccccc4)sc3c2)c1 |  | inconclusive [inhibitor, single point]
38 | Cc1nn(-c2ccccc2)c2c1C(c1ccc(Br)s1)C(C#N)=C(N)O2 (configuration not stated) | inactive: 0.284% | 
39 | Nc1ncc(S(=O)(=O)Nc2ccc(F)cc2F)cn1 | inactive: -2.73% | 
40 | Cc1cccc(NC(=O)CSc2nnc(-c3ccco3)c(-c3ccco3)n2)c1C |  | active: 12.6 µM
41 | COc1ccc(Cl)cc1NC(=O)Cn1c(=O)c(-c2ccccc2NC(C)=O)nc2ccccc21 | inactive: 0.41% | 
42 | COc1ccc(C(=O)CSc2nc(C(C)(C)C)nc3ccccc23)cc1 |  | inconclusive [inhibitor, partial curve, poor fit]
43 | O=C(Nc1cccc(Cl)c1)N(CCCN1CCOCC1)Cc1ccccc1F |  | inconclusive [inhibitor, single point]
44 | CCN(CC)S(=O)(=O)c1ccc(C(=O)Nc2nc3ccc(Cl)cc3s2)cc1 |  | inconclusive [inhibitor, single point]
45 | COc1ccc2c(c1)Sc1ccccc1N2 | inactive: -11% | 
46 | O=S(=O)(c1ccccc1)c1nnn2c1nc(NCc1ccc(Cl)cc1)c1sccc12 |  | inconclusive [inhibitor, partial curve]
47 | COc1ccccc1NC(=O)Cn1c(=O)c(CNc2ccccc2)cc2cc(OC)c(OC)cc21 |  | inconclusive [activator, partial curve]
